Measured values: patent US11685745B2, “Substituted benzoxazole and benzofuran compounds as PDE7 inhibitors” (Dart NeuroScience, LLC, priority 2017, dated 2023)

molecular target: N-terminal truncated recombinant human PDE7B enzyme (Homo sapiens (Human), UniProt Q9NP56); test: biochemical

Row | Compound | IC50
1 | O=C1Nc2c(Cl)cc3cc(CN4CCCC(Cn5ccnc5)C4)oc3c2C2(CCCCC2)N1 (centres unmarked) [Example 511, 5′-Chloro-2′-{[3-(1H-imidazol-1-ylmethyl)piperidin-1-yl]methyl}-7′,8′-dihydro-6′H-spiro[cyclohexane-1,9′-furo[2,3-f]quinazoline]-7′-one] | 10 to 100 nM
2 | O=C1Nc2c(Cl)cc3cc(CN4CCCC4CO)oc3c2C2(CCCCC2)N1 (centres unmarked) [Example 481, 5′-Chloro-2′-{[2-(hydroxymethyl)pyrrolidin-1-yl]methyl}-7′,8′-dihydro-6′H-spiro[cyclohexane-1,9′-furo[2,3-f]quinazoline]-7′-one] | 100 to 1000 nM
3 | Cc1ccc2[nH]c(CN(C)C(=O)c3cc4cc(Cl)c5c(c4o3)C3(CCCCC3)NC(=O)N5)nc2c1 [Example 295, 5′-Chloro-N-methyl-N-[(5-methyl-1H-1,3-benzodiazol-2-yl)methyl]-7′-oxo-7′,8′-dihydro-6′H-spiro[cyclohexane-1,9′-furo[2,3-f]quinazoline]-2′-carboxamide] | 10 to 100 nM
4 | CC(=O)c1cc2cc(Cl)c3c(c2o1)C1(CCCCC1)NC(=O)N3 [Example 575, 2′-Acetyl-5′-chloro-7′,8′-dihydro-6′H-spiro[cyclohexane-1,9′-furo[2,3-f]quinazoline]-7′-one] | 10 to 100 nM
5 | CN1CCC(NC(=O)c2cc3cc(Cl)c4c(c3o2)C2(CCCCC2)NC(=O)N4)CC1=O (centres unmarked) [Example 371, 5′-Chloro-N-(1-methyl-2-oxopiperidin-4-yl)-7′-oxo-7′,8′-dihydro-6′H-spiro[cyclohexane-1,9′-furo[2,3-f]quinazoline]-2′-carboxamide] | 10 to 100 nM
6 | O=C1Nc2c(Cl)cc3nc(CNC4CCCOCC4)oc3c2C2(CCCCC2)N1 (centres unmarked) [Example 147, 5-Chloro-2-{[(oxepan-4-yl)amino]methyl}-7,8-dihydro-6H-spiro[[1,3]oxazolo[5,4-f]quinazoline-9,1′-cyclohexane]-7-one] | 10 to 100 nM
7 | O=C1Nc2c(Cl)cc3nc(CNCC4COC4)oc3c2C2(CCCCC2)N1 [Example 89, 5-Chloro-2-{[(oxetan-3-ylmethyl)amino]methyl}-7,8-dihydro-6H-spiro[[1,3]oxazolo[5,4-f]quinazoline-9,1′-cyclohexane]-7-one] | 10 to 100 nM
8 | CCN(CCO)Cc1cc2cc(Cl)c3c(c2o1)C1(CCCCC1)NC(=O)N3 [Example 499, 5′-Chloro-2′-{[ethyl(2-hydroxyethyl)amino]methyl}-7′,8′-dihydro-6′H-spiro[cyclohexane-1,9′-furo[2,3-f]quinazoline]-7′-one] | 100 to 1000 nM
9 | O=C1Nc2c(Cl)cc3cc(CNCC(F)(F)F)oc3c2C2(CCCCC2)N1 [Example 527, 5′-Chloro-2′-{[(2,2,2-trifluoroethyl)amino]methyl}-7′,8′-dihydro-6′H-spiro[cyclohexane-1,9′-furo[2,3-f]quinazoline]-7′-one] | 100 to 1000 nM
10 | CN(C)C1CCN(Cc2nc3cc(Cl)c4c(c3o2)C2(CCCCC2)NC(=O)N4)C1 (centres unmarked) [Example 140, 5-Chloro-2-{[3-(dimethylamino)pyrrolidin-1-yl]methyl}-7,8-dihydro-6H-spiro[[1,3]oxazolo[5,4-f]quinazoline-9,1′-cyclohexane]-7-one] | 100 to 1000 nM
11 | Cn1nccc1CNCc1cc2cc(Cl)c3c(c2o1)C1(CCCCC1)NC(=O)N3 [Example 541, 5′-Chloro-2′-({[(1-methyl-1H-pyrazol-5-yl)methyl]amino}methyl)-7′,8′-dihydro-6′H-spiro[cyclohexane-1,9′-furo[2,3-f]quinazoline]-7′-one] | 10 to 100 nM
12 | CCN(CCC#N)Cc1cc2cc(Cl)c3c(c2o1)C1(CCCCC1)NC(=O)N3 [Example 479, 3-({5′-Chloro-7′-oxo-7′,8′-dihydro-6′H-spiro[cyclohexane-1,9′-furo[2,3-f]quinazoline]-2′-ylmethyl}(ethyl)amino)propanenitrile] | 100 to 1000 nM
13 | COCCN1CCN(C(=O)c2cc3cc(Cl)c4c(c3o2)C2(CCCCC2)NC(=O)N4)CC1 [Example 233, 5′-Chloro-2′-[4-(2-methoxyethyl)piperazine-1-carbonyl]-7′,8′-dihydro-6′H-spiro[cyclohexane-1,9′-furo[2,3-f]quinazoline]-7′-one] | 10 to 100 nM
14 | O=C1Nc2c(Cl)cc3nc(CNC4(CO)CCCC4)oc3c2C2(CCCCC2)N1 [Example 96, 5-Chloro-2-({[1-(hydroxymethyl)cyclopentyl]amino}methyl)-7,8-dihydro-6H-spiro[[1,3]oxazolo[5,4-f]quinazoline-9,1′-cyclohexane]-7-one] | 100 to 1000 nM
15 | O=C1Nc2c(Cl)cc3cc(CN4CCC(O)(c5ccccc5)CC4)oc3c2C2(CCCCC2)N1 [Example 495, 5′-Chloro-2′-[(4-hydroxy-4-phenylpiperidin-1-yl)methyl]-7′,8′-dihydro-6′H-spiro[cyclohexane-1,9′-furo[2,3-f]quinazoline]-7′-one] | 100 to 1000 nM
16 | CN(Cc1cccs1)C(=O)c1cc2cc(Cl)c3c(c2o1)C1(CCCCC1)NC(=O)N3 [Example 409, 5′-Chloro-N-methyl-7′-oxo-N-(thiophen-2-ylmethyl)-7′,8′-dihydro-6′H-spiro[cyclohexane-1,9′-furo[2,3-f]quinazoline]-2′-carboxamide] | 100 to 1000 nM
17 | O=C1Nc2c(Cl)cc3cc(C(=O)N4CCN(c5nccs5)CC4)oc3c2C2(CCCCC2)N1 [Example 447, 5′-Chloro-2′-[4-(1,3-thiazol-2-yl)piperazine-1-carbonyl]-7′,8′-dihydro-6′H-spiro[cyclohexane-1,9′-furo[2,3-f]quinazoline]-7′-one] | 10 to 100 nM
18 | O=C1Nc2c(Cl)cc3cc(C(=O)N4CCC5C(C4)C5(F)F)oc3c2C2(CCCCC2)N1 (centres unmarked) [Example 376, 5′-Chloro-2′-{7,7-difluoro-3-azabicyclo[4.1.0]heptane-3-carbonyl}-7′,8′-dihydro-6′H-spiro[cyclohexane-1,9′-furo[2,3-f]quinazoline]-7′-one] | 10 to 100 nM
19 | NC1CCN(Cc2cc3cc(Cl)c4c(c3o2)C2(CCCCC2)NC(=O)N4)C1 (centres unmarked) [Example 568, 2′-[(3-Aminopyrrolidin-1-yl)methyl]-5′-chloro-7′,8′-dihydro-6′H-spiro[cyclohexane-1,9′-furo[2,3-f]quinazoline]-7′-one] | 100 to 1000 nM
20 | O=C1Nc2c(Cl)cc3nc(CNCc4ccc(F)cn4)oc3c2C2(CCCCC2)N1 [Example 67, 5-Chloro-2-({[(5-fluoropyridin-2-yl)methyl]amino}methyl)-7,8-dihydro-6H-spiro[[1,3]oxazolo[5,4-f]quinazoline-9,1′-cyclohexane]-7-one] | 10 to 100 nM
21 | O=C1Nc2c(Cl)cc3cc(C(=O)NC4(c5ccccn5)CC4)oc3c2C2(CCCCC2)N1 [Example 359, 5′-Chloro-7′-oxo-N-[1-(pyridin-2-yl)cyclopropyl]-7′,8′-dihydro-6′H-spiro[cyclohexane-1,9′-furo[2,3-f]quinazoline]-2′-carboxamide] | 10 to 100 nM
22 | O=C1Nc2c(Cl)cc3nc(CNCC(O)C4CCCCC4)oc3c2C2(CCCCC2)N1 (centres unmarked) [Example 102, 5-Chloro-2-{[(2-cyclohexyl-2-hydroxyethyl)amino]methyl}-7,8-dihydro-6H-spiro[[1,3]oxazolo[5,4-f]quinazoline-9,1′-cyclohexane]-7-one] | 100 to 1000 nM
23 | O=C1Nc2c(Cl)cc3cc(CNC4CCOCC4)oc3c2C2(CCCCC2)N1 [Example 476, 5′-Chloro-2′-{[(oxan-4-yl)amino]methyl}-7′,8′-dihydro-6′H-spiro[cyclohexane-1,9′-furo[2,3-f]quinazoline]-7′-one] | 100 to 1000 nM
